# Results as given in the supplement of paper PMC11741623.
# This is one part of the list. Interaction screen of human proteins with wild-type SARS-CoV-2 proteins by split-DHFR complementation in yeast, 1 µg/mL methotrexate. Value = fitness of the pair (three or more lineages) minus that of the viral protein without a human partner, on a scale set by negative (0) and fused positive (1) controls, mean of up to three cultures; higher = more likely to interact. Active = false discovery rate below 0.05 (one-sided t-test) in at least one culture. Nearly all pairs are not hits, and differences among them are mostly noise (correlation between cultures about 0.3); most hits were seen in one culture only. Human sequences are the Swiss-Prot entries looked up by gene name; the clone may be another isoform. NSP2 values were corrected by the authors for a growth advantage. Listed are human proteins with a hit and a random twelfth of the others.
# Legend:
# Test in all cases: yeast fitness gain over the viral ORF with no human partner (scaled fitness); higher = more likely to interact
# [1] = target: SARS-CoV-2 ORF3B
# Procedure: (§1)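 Split mouse DHFR complementation in pooled diploid yeast: human ORFeome clones carry one fragment and viral ORFs the other; barcoded lineages compete in 1 µg/mL methotrexate and fitness is read by barcode sequencing in up to three cultures.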
# [2] = target: SARS-CoV-2 ORF6
# Procedure: as §1
# [3] = target: SARS-CoV-2 ORF9B
# Procedure: as §1
Binder,yeast fitness gain [1],yeast fitness gain [2],yeast fitness gain [3]
"ERMP1, Q7Z2K6 (protein) MEWGSESAAVRRHRVGVERREGAAAAPPPEREARAQEPLVDGCSGGGRTRKRSPGGSGGASRGAGTGLSEVRAALGLALYLIALRTLVQLSLQQLVLRGAAGHRGEFDALQARDYLEHITSIGPRTTGSPENEILTVHYLLEQIKLIEVQSNSLHKISVDVQRPTGSFSIDFLGGFTSYYDNITNVVVKLEPRDGAQHAVLANCHFDSVANSPGASDDAVSCSVMLEVLRVLSTSSEALHHAVIFLFNGAEENVLQASHGFITQHPWASLIRAFINLEAAGVGGKELVFQTGPENPWLVQAYVSAAKHPFASVVAQEVFQSGIIPSDTDFRIYRDFGNIPGIDLAFIENGYIYHTKYDTADRILTDSIQRAGDNILAVLKHLATSDMLAAASKYRHGNMVFFDVLGLFVIAYPSRIGSIINYMVVMGVVLYLGKKFLQPKHKTGNYKKDFLCGLGITLISWFTSLVTVLIIAVFISLIGQSLSWYNHFYVSVCLYGTATVAKIILIHTLAKRFYYMNASAQYLGEVFFDISLFVHCCFLVTLTYQGLCSAFISAVWVAFPLLTKLCVHKDFKQHGAQGKFIAFYLLGMFIPYLYALYLIWAVFEMFTPILGRSGSEIPPDVVLASILAGCTMILSSYFINFIYLAKSTKKTMLTLTLVCAITFLLVCSGTFFPYSSNPANPKPKRVFLQHMTRTFHDLEGNAVKRDSGIWINGFDYTGISHITPHIPEINDSIRAHCEENAPLCGFPWYLPVHFLIRKNWYLPAPEVSPRNPPHFRLISKEQTPWDSIKLTFEATGPSHMSFYVRAHKGSTLSQWSLGNGTPVTSKGGDYFVFYSHGLQASAWQFWIEVQVSEEHPEGMVTVAIAAHYLSGEDKRSPQLDALKEKFPDWTFPSAWVCTYDLFVF",inactive: -0.0543,inactive: -0.122,
"IL31, Q6EBC2 (protein) MASHSGPSTSVLFLFCCLGGWLASHTLPVRLLRPSDDVQKIVEELQSLSKMLLKDVEEEKGVLVSQNYTLPCLSPDAQPPNNIHSPAIRAYLKTIRQLDNKSVIDEIIEHLDKLIFQDAPETNISVPTDTHECKRFILTISQQFSECMDLALKSLTSGAQQATT",inactive: -0.0233,,
"BBS7, Q8IWZ6 (protein) MDLILNRMDYLQVGVTSQKTMKLIPASRHRATQKVVIGDHDGVVMCFGMKKGEAAAVFKTLPGPKIARLELGGVINTPQEKIFIAAASEIRGFTKRGKQFLSFETNLTESIKAMHISGSDLFLSASYIYNHYCDCKDQHYYLSGDKINDVICLPVERLSRITPVLACQDRVLRVLQGSDVMYAVEVPGPPTVLALHNGNGGDSGEDLLFGTSDGKLALIQITTSKPVRKWEIQNEKKRGGILCIDSFDIVGDGVKDLLVGRDDGMVEVYSFDNANEPVLRFDQMLSESVTSIQGGCVGKDSYDEIVVSTYSGWVTGLTTEPIHKESGPGEELKINQEMQNKISSLRNELEHLQYKVLQERENYQQSSQSSKAKSAVPSFGINDKFTLNKDDASYSLILEVQTAIDNVLIQSDVPIDLLDVDKNSAVVSFSSCDSESNDNFLLATYRCQADTTRLELKIRSIEGQYGTLQAYVTPRIQPKTCQVRQYHIKPLSLHQRTHFIDHDRPMNTLTLTGQFSFAEVHSWVVFCLPEVPEKPPAGECVTFYFQNTFLDTQLESTYRKGEGVFKSDNISTISILKDVLSKEATKRKINLNISYEINEVSVKHTLKLIHPKLEYQLLLAKKVQLIDALKELQIHEGNTNFLIPEYHCILEEADHLQEEYKKQPAHLERLYGMITDLFIDKFKFKGTNVKTKVPLLLEILDSYDQNALISFFDAA",inactive: -0.117,inactive: -0.191,
"CACNG5, Q9UF02 (protein) MSACGRKALTLLSSVFAVCGLGLLGIAVSTDYWLYLEEGVIVPQNQSTEIKMSLHSGLWRVCFLAGEERGRCFTIEYVMPMNTQLTSESTVNVLKMIRSATPFPLVSLFFMFIGFILNNIGHIRPHRTILAFVSGIFFILSGLSLVVGLVLYISSINDEMLNRTKDAETYFNYKYGWSFAFAAISFLLTESAGVMSVYLFMKRYTAEDMYRPHPGFYRPRLSNCSDYSGQFLHPDAWVRGRSPSDISSEASLQMNSNYPALLKCPDYDQMSSSPC",,inactive: -0.0997,inactive: 0.0959
"FAM3B, P58499 (protein) MRPLAGGLLKVVFVVFASLCAWYSGYLLAELIPDAPLSSAAYSIRSIGERPVLKAPVPKRQKCDHWTPCPSDTYAYRLLSGGGRSKYAKICFEDNLLMGEQLGNVARGINIAIVNYVTGNVTATRCFDMYEGDNSGPMTKFIQSAAPKSLLFMVTYDDGSTRLNNDAKNAIEALGSKEIRNMKFRSSWVFIAAKGLELPSEIQREKINHSDAKNNRYSGWPAEIQIEGCIPKERS",,inactive: 0.0125,inactive: -0.0981
